Data from PubChem BioAssay AID1159614 (National Center for Advancing Translational Sciences (NCATS), 2016).
The campaign covered roughly 45,000 compounds. About 65 (0.1%) were called active. The call rests on the fitted dose curve; in most records, active means well fitted activation curve with a large enough effect; inconclusive means small, poorly fitted or top-dose-only effect; inactive means no such curve, though single readings can be large or run the other way. This is one part of the list.

Target: Galactocerebrosidase (Homo sapiens) (UniProt P54803)
Sequence of UniProt P54803 (P54803 whole entry, looked up): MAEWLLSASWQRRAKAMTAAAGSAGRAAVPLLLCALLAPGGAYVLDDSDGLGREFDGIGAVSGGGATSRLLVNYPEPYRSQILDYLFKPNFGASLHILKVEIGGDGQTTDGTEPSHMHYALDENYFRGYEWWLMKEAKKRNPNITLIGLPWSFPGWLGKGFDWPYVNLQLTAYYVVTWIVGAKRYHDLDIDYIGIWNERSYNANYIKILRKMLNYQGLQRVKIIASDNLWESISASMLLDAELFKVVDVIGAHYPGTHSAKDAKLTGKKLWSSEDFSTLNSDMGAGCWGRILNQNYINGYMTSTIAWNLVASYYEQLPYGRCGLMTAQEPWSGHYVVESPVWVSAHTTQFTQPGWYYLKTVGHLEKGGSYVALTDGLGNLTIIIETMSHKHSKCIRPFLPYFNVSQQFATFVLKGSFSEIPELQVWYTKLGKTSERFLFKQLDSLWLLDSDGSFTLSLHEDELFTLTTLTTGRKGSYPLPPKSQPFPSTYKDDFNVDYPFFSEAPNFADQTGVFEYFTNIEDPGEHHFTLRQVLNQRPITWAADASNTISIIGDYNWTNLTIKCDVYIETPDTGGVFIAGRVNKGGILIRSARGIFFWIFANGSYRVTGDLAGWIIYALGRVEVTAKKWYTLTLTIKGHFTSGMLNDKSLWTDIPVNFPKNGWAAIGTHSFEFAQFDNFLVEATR
Experiment: A Novel Cell-Based Assay to Identify Small Molecules for B -Galactocerebrosidase; further: 0% is about no effect; nearly all actives have a fitted effect of over 65% in size
Conditions: 145M-Twi-hGALC-G270D cells, HMU-beta-Gal fluorescence, 48 h; series mostly up to 57.5 µM; activation: at the top concentration
Outline: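 qHTS, 1536-well; 145M-Twi-hGALC-G270D cells (WT line also made) in DMEM/F12 + 10% FBS; compound incubation on live cells; HMU-β-gal 0.1 mM final, pH 5.2, NaTC; carbonate stop; fluorescence increase = enhanced residual activity.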

activation, inactive:
CCOC(=O)c1ccc(O)cc1 -5.25%, Cc1cccc(Nc2cc(C)nc3nc(-c4ccccc4)nn23)c1 12.1%, CC1=C(C(=O)Nc2cccc(F)c2)C2(CCCCC2)OC1=O -9.24%, COC(=O)c1c(SCC(=O)Nc2ccccc2C(F)(F)F)[nH]c2ccc(Cl)cc2c1=O -2.33%, CC(C)c1ccc(CNC(=O)c2ccc(N3CCCC3)c(NC(=O)NCc3ccc(F)cc3)c2)cc1 -8.43%, CCOc1ccc(/C=C(\C#N)C(=O)Nc2sc3c(c2C(=O)OC)CCC3)cc1OC -10.8%, CCOC(=O)C1CCN(C(c2ccc(C)cc2)c2sc3nc(-c4ccco4)nn3c2O)CC1 (stereo unspecified) 2.82%, Cc1ccc(Cl)cc1NC(=O)C(NS(=O)(=O)c1ccc2c(c1)CCC(=O)N2)c1ccccc1 (stereo unspecified) -9.25%, Cc1ccc2c(c1)c1c(c(=O)n(-c3ccccc3C)c(=O)n1Cc1cccc(F)c1)n2C -1.78%, COc1cccc(CNC(=O)CCn2c(=O)c3cccn3c3cccnc32)c1 -9.84%, Cc1ccccc1C(=O)NC(=O)Nc1ccc(-n2nc(C(F)(F)F)cc2C(F)(F)F)cc1 -5.37%, COc1ccc2cc(CNc3ccccc3)c(=O)n(CC(=O)Nc3ccc(C(C)=O)cc3)c2c1 4%, CCC(=O)N1CCc2cc(S(=O)(=O)NC(Cc3ccccc3)C(=O)NCc3cccc(OC)c3)ccc21 (stereo unspecified) -30%, COc1ccc(-c2cn3nc(N4CCCC(C(=O)NCCCOC(C)C)C4)sc3n2)cc1 (stereo unspecified) -13.8%, Cc1cccc(NC(=O)CC2C(=O)OCCN2Cc2ccccc2)c1 (stereo unspecified) 1.71%, CC(C)(C)C(=O)Nc1ccc2nc(SCc3ccccc3)sc2c1 18.9%, CC1=C(c2ccc(F)cc2)S(=O)(=O)NC1=NCc1ccccc1Cl 4.82%, Cc1ccc(C(=O)CSc2nc(-c3ccccc3)nc3c2CCCC3)cc1C -20.2%, CCCN(CCC)c1cc(C)nc2nc(-c3ccc(Cl)cc3)nn12 -7.91%, Cc1nc2nc(NC(=O)C(C)C)[nH]n2c(=O)c1Cc1ccccc1 -1.97%, Cc1ccc(CSc2nc3cccnc3n2Cc2ccc(C(=O)NCc3cccs3)cc2)cc1 -8.37%, Cc1ccc(Nc2nc(C(N)=O)c(NC(=O)c3ccccc3Br)s2)cc1 -28.9%, Cc1ccc(NC(=O)C2CCN(C(=O)c3cnn(-c4ccccc4)c3-n3cccc3)CC2)cc1Cl -12.4%, CC1=C(C(=O)Nc2ccc(C)cc2C)C(c2cccs2)n2nc(SCc3ccc(Cl)cc3)nc2N1 (stereo unspecified) -12.5%, Cc1cc(Oc2nc3ccccn3c(=O)c2/C=C(\C#N)c2nc3ccccc3s2)ccc1Cl -11%, CC(=O)c1ccc(NC(=O)CC2Sc3ccccc3NC2=O)cc1 (stereo unspecified) -6.13%, COc1ccc(-c2csc3ncnc(Nc4cccc(F)c4)c23)cc1 -8.98%, COCC(C)NS(=O)(=O)c1ccc(N2CCCCS2(=O)=O)cc1 (stereo unspecified) -22.1%, COc1cc(Cl)c(C)cc1NC(=O)CCn1cnc2onc(-c3ccc(F)cc3)c2c1=O -13.9%, CC(CNC(=O)Cn1c(-c2cccs2)cc2cc(Cl)ccc21)c1ccccc1 (stereo unspecified) -13.2%, CCOC(=O)c1ccc(NC(=O)c2sc3nc4n(c(=O)c3c2C)CCC4)cc1 -55.2%, CCN1C(C(=O)c2ccccc2)=C(NC(=O)c2ccc(Cl)cc2)c2ccccc2S1(=O)=O -18.1%, CC(=O)N1CCCc2cc(S(=O)(=O)Nc3ccc(OC(F)(F)F)cc3)ccc21 -16.5%, Cc1ccc(-n2ccn(CC(=O)c3ccc(F)cc3)c(=O)c2=O)cc1C -0.079%, COc1cccc(C(=O)NCCc2sc(-c3cccc(C)c3)nc2C)c1 -29.7%, Cc1cccc(C)c1NC(=O)c1cc(S(=O)(=O)N2CCCc3ccccc32)ccc1F -21.9%, CC(C)c1ccc(NC(=O)C(Cc2ccccc2)n2cccc2)cc1 (stereo unspecified) -14.3%, Cc1ccc2c(CC(=O)Nc3c(C(=O)c4ccc(F)cc4)oc4ccccc34)coc2c1C -27%, CCOc1ccc(NC(=O)Cn2c(=O)n(CC(=O)NCCc3ccccc3)c(=O)c3sccc32)cc1 -7.53%, Cc1ccc(C)c(S(=O)(=O)c2cn(Cc3ccccc3)c3cc(N4CCCC4)c(F)cc3c2=O)c1 -5.45%, COc1ccc2c(CNCCc3ccco3)c(C(=O)O)n(Cc3ccc(F)cc3)c2c1 -8.03%, CCOC(=O)c1ccc(N2C(=O)c3[nH]nc(-c4ccccc4)c3C2c2ccc(C(C)C)cc2)cc1 (stereo unspecified) -0.321%, CCn1cc(C(=O)NCc2ccc(Cl)cc2)c(=O)c2cc(S(=O)(=O)N3CCc4ccccc4C3)ccc21 -12.9%, CC(=O)Nc1nonc1-c1nnc(SCC(=O)Nc2c(C)cccc2C)n1-c1ccccc1 -10%, COc1cccc(NC(=O)c2oc3ccccc3c2NC(=O)c2ccc(OC(C)C)cc2)c1 -19.1%, Cc1ccc(-n2[nH]c(C)c(N=Nc3cccc(-c4cccc(C(=O)O)c4)c3O)c2=O)cc1C -5.37%, Cn1c(=O)c2[nH]c(Br)nc2n(C)c1=O -20.6%, CCOC(=O)c1c(C)[nH]c(C)c1S(=O)(=O)N(C)CC(=O)N1CCN(c2cccc(C)c2C)CC1 -1.15%, COc1cccc(C(=O)Nc2nc3nc(C)c(Cc4ccccc4)c(=O)n3[nH]2)c1 -2.5%, Cc1cccc(N2C(=O)C(CC(=O)Nc3ccccc3)N(C3CCCCC3)C2=O)c1 (stereo unspecified) -13%, COc1ccccc1C(=O)Nc1ccccc1C(=O)OCc1cc(=O)n2c(C)csc2n1 -31.4%, CCOC(=O)c1c(C)oc2nc(C)nc(NCCCN3CCN(c4ccccc4OC)CC3)c12 -25.7%, Cc1nn(C)c2c1c(-c1ccccc1)cc(=O)n2Cc1ccc(Br)cc1F -11%, O=C(c1cccc([N+](=O)[O-])c1)N1c2nc(-c3ccco3)nn2C2(CCCCC2)[C@@H]2CCCC[C@@H]21 -5.99%, COc1ccc(-c2cc(C(F)(F)F)nc(SCC(=O)N3CCCCC3)n2)cc1 -7.8%, Cc1ccc(CNC(=O)CCCn2c(=O)c3ccccc3n(Cc3ccccc3Cl)c2=O)cc1 -0.992%, CCCCOc1ccc(NC(=O)c2cc3c(n(-c4ccc(Cl)cc4)c2=O)CCCC3=O)cc1 -16.1%, CCCC(=O)c1cc2c(cc1NC(=O)c1ccccc1F)OCCO2 -10.3%, Cc1ccc(OCC(=O)N(Cc2ccc(N(C)C)cc2)CC2CCCO2)cc1C (stereo unspecified) -13.2%, O=S(=O)(NCCc1csc2nc(-c3ccc(F)cc3)nn12)c1ccc2c(c1)OCCO2 -38.4%, CC(=O)Nc1ccc(NC(=O)CC(C)n2ccc(C)n2)cc1 (stereo unspecified) -22.2%, Cc1cc(C)c(-c2csc(-c3cc4ccccc4oc3=O)n2)cc1C -41.6%, CCCN1CCN(CCNC(=O)Nc2cc(Cl)c(OC)cc2OC)CC1 -2.05%, COc1cccc(CNC(=O)C2CCCN(S(=O)(=O)c3ccc4c(ccn4C)c3)C2)c1OC (stereo unspecified) -11.3%, Cc1cc(C(=O)Nc2cccc(C(F)(F)F)c2)c2c(C)nn(-c3cccc(F)c3)c2n1 -5.43%, Cc1nn2c3c(cnc2c1-c1ccc(F)cc1)C(=O)CC(c1ccccc1)C3 (stereo unspecified) -10%, O=C(Cn1c(=O)n(CCCS(=O)(=O)C2CCCCC2)c(=O)c2ccccc21)Nc1ccccc1F -17.8%, O=C(NCCc1ccccc1)c1c2c(nc3ccccc13)C(=O)N(C1CCCCC1)C2 -14.4%, Cc1oc(-c2cccc(Cl)c2)nc1CN1CCC(C(=O)NCc2ccc(F)cc2)CC1 5.05%, O=C(Nc1nnc(N2CCCC2)s1)Nc1cc(F)ccc1F -20.4%, CN1CCC(N(Cc2cccs2)c2ccccc2)CC1 12.5%, Cc1ccccc1Cn1c(=O)n(CCCCC(=O)NCc2ccc3c(c2)OCO3)c(=O)c2ccccc21 -5.65%, CCOC(=O)c1c(-c2ccccc2)oc2ccc(OCc3ccc(C)cc3)cc12 -0.835%, Cc1cc2c(n1-c1ccc(C(=O)NCc3cccc(Br)c3)cc1)CCC(C)C2 (stereo unspecified) -20.2%, Cc1cccc(-c2nc3c4ccccc4n(CC(=O)Nc4cc(F)ccc4F)c(=O)n3n2)c1 2.23%, Cc1ccc(N2C(=O)CSC23C(=O)Nc2ccccc23)cc1F (stereo unspecified) -12.7%, CC(=O)c1cccc(NC(=O)C2CCN(c3nnc(-n4cccc4)s3)CC2)c1 -22.4%, O=C(COCCOCCOCC(=O)Nc1c(I)cc(I)c(C(=O)O)c1I)Nc1c(I)cc(I)c(C(=O)O)c1I -7.39%, Nc1ccc(N)c([N+](=O)[O-])c1 -8.89% [at 114 µM], C=CCOc1cc(Cl)ccc1C(=O)NCCN(CC)CC -14.1%, CCCN1C(=O)c2[nH]nc(-c3ccc(F)cc3)c2C1c1ccc(O)c(OCC)c1 (stereo unspecified) -8.16%, COc1cccc(NC(=O)Cc2ccc(NC(=O)N3CCCCc4ccccc43)cc2)c1 -2.26%, COc1ccc(C(=O)Cn2c(=O)n3nc(CCn4nc(C)cc4C)nc3c3cc(OC)c(OC)cc32)cc1 -10.3%, COc1ccc(S(=O)(=O)Nc2c(C)n(C)n(-c3ccccc3)c2=O)cc1Br -15.5%, CCOc1ccc(C(=O)Nc2c(C)nc(Nc3ccccc3)nc2Nc2ccccc2)cc1OCC -8%, O=C(c1ccc(Br)cc1)N1CCC(c2nc3ccccc3s2)CC1 -16.7%, CCOC(=O)c1[nH]c(C)c(CCC(=O)Nc2ccc(C)cc2Cl)c1C -17.3%, CCOc1ccc(CNC(=O)C(C)n2ncn3cccc3c2=O)cc1 (stereo unspecified) -10%, CCOc1ccccc1CNC(=O)C1=C(C)C(=O)OC12CCN(C(C)=O)CC2 -11%, CC(C)Nc1cc(N2CCN(C3CCCCC3)CC2)c2noc3c2c1C(=O)c1ccccc1-3 -12.9%, COc1ccccc1N1CCN(C(=O)CSc2nc(C)cc(=O)[nH]2)CC1 1.93%, COc1ccc(CCNc2nc(-c3ccccc3OC)cc(C(F)(F)F)n2)cc1OC 12.7%, CCOC(=O)c1sc(NC(=O)c2nc3nc(C)cc(C(F)F)n3n2)c(C(=O)OC(C)C)c1C 4%, COc1ccccc1C(=O)Nc1ccccc1C(=O)OCc1cc(=O)n2ccsc2n1 -8.55%, CCCOc1ccc(CNC(=O)CCCN2C(=O)CSc3c2c(C)nn3-c2ccccc2)cc1 -9.42%, Cc1ccc(-c2nc(CCNC(=O)C(=O)Nc3ccc(C)c(Cl)c3)cs2)cc1 -9.38%
